Here are results for 84 compounds from ChEMBL document CHEMBL4888484, “Replenishing the malaria drug discovery pipeline: Screening and hit evaluation of the MMV Hit Generation Library 1 (HGL1) against asexual blood stage Plasmodium falciparum ,using a nano luciferase reporter read-out” (2022).

For orientation: % Inhibition means the change of the read-out against control, counted positive when it falls.

In all, about 150,000 compounds went through this assay and about 540 (0.36%) showed an effect of 50% or more. The list shows a part of the results.

This assay has as its system Plasmodium falciparum. The assay can be described thus: Primary screen in NF54 nanoGlo assay, in single point, at 2uM, 72h; a lower Z score goes with more inhibition. The class given is functional, Erythrocyte. The settings on record: timepoint 72 hour.
Regarding `c1ccc(-c2ncc(-c3nccn3CCc3c[nH]cn3)s2)cc1`, the “% Inhibition” value was found to be 4% and the Z score is given as -0.58.
In the same order, the values of `Cc1nnc(CN(C)C(=O)c2cccc(-c3sc(C)nc3C)c2)o1` are 6% and -0.79.
On the same counts, the results for `COc1ccc(C(=O)N2CCOCC2)cc1S(=O)(=O)N1CCCCC1` are 1% and -0.22.
In the same order, the values of `CC(C)(CNC(=O)Nc1ccccc1)c1ccsc1` are -11% and 2.14.
On to `CC1C(O)CC2CCC1N2Cc1ccc(C(=O)O)cc1F` (stereo not drawn), for which the “% Inhibition” value is 9% and the Z score is listed as -1.33.
In the same order, the values of `OCCCN(CCO)Cc1ccncc1Cl` are -8% and 0.85.
In the same order, the values of `CCCn1cc(C(=O)N2CC[C@@H]3OCc4cccc(c4)Oc4cc(OCC)cc(c4)C(=O)N(C)CC(=O)N[C@@H]3C2)c(C)n1` are -3% and 0.61.
In the same order, the values of `CCC(CC)CN(CC)C(=O)c1cnn2c1S(=O)(=O)N(C)CC2` are -8% and 1.46.
As to `Cc1ccc2c(=O)n([C@H](c3nccn3C)C3CC3)cnc2c1C`, the “% Inhibition” value is given as -11% and the Z score was determined as 1.72.
In the same order, the values of `O=C(N[C@@H](c1ccsc1)c1cccs1)c1cccc(Cl)c1` are -7% and 1.28.
In the same order, the values of `CCC1(CC)NC(=O)N(Cc2cn3cc(Cl)ccc3n2)C1=O` are -4% and 0.66.
`CC(C)(O)CCON=C(N)Cc1ccccc1`: the “% Inhibition” value was found to be 11% and the Z score was -1.78.
In the same order, the values of `CC(COC1CCOC1)NC(=O)C1CCC(=O)C(C)C1` (stereo not drawn) are -1% and 0.21.
On the same counts, the results for `O=C(NCCCNc1cccc(F)c1)c1ccc[nH]1` are 15% and -1.71.
In the same order, the values of `COc1ccc2c(N3CCn4c(nnc4C(F)F)C3)ncnc2c1F` are -4% and 0.58.
For `COCCN1CCC(CNc2ncccc2C#N)CC1`, the “% Inhibition” value is given as -15% and the Z score worked out at 2.75.
In the same order, the values of `CC(CC(=O)C(C#N)C(=O)Nc1ccccc1F)c1ccc(F)cc1` (stereo not drawn) are -7% and 0.97.
On the same counts, the results for `Cc1nnc(-c2cc(C(C)C)n(-c3ccc(C(=O)NCCC4=CCCCC4)cc3)n2)o1` are -23% and 3.15.
`Cc1c(Cl)cc(C(=O)N(C)CCc2noc(C3CC3)n2)cc1Cl`: the “% Inhibition” value was -8% and the Z score is given as 1.52.
On the same counts, the results for `CC[C@H]1C(=O)NCCN1C(=O)c1coc(COc2ccc3c(c2)OCO3)n1` are -6% and 0.85.
In the same order, the values of `COCCCn1cnnc1[C@H](C)Nc1ncnc2c1Cc1ccccc1OC2` are -14% and 1.35.
Turning to `COCCC1(CNC(=O)c2cccnc2O[C@@H](C)C(F)(F)F)CC1`, the “% Inhibition” value is -15% and the Z score came out at 1.93.
In the same order, the values of `CCN(Cc1cccnc1N(C)C)C[C@H]1CCCO1` are -3% and 0.51.
On the same counts, the results for `CCO[C@@H](C)c1ncc(-c2nc(C3(OC)CCOCC3)no2)s1` are 30% and -3.34.
In the same order, the values of `CCS(=O)(=O)N1CCC[C@H](c2ccn(C)n2)C1` are -12% and 1.49.
On to `O=C(CN1CCc2nocc2C1)NCC1CCCCC1`, for which the “% Inhibition” value is 8% and the Z score is on record as -1.09.
On the same counts, the results for `CC1CN(Cc2sccc2NC(=O)OC(C)(C)C)CC(C)O1` (stereo not drawn) are -2% and 0.34.
On the same counts, the results for `Cc1nc(N2CCC(CNC(=O)[C@H]3CCOC3)CC2)ccc1F` are 12% and -1.64.
Regarding `O=C(NC1CCCCC1)c1ccc(CN2C(=O)CCn3nc(-c4ccccc4)cc32)cc1`, the “% Inhibition” value stood at 6% and the Z score is -0.76.
In the same order, the values of `Cc1ccc(CNC(=O)[C@H]2CCC(=O)N(C3CCCCCC3)C2)o1` are -15% and 1.37.
On the same counts, the results for `O=C(N[C@@H](Cc1ccccc1)C(=O)N1CCCC1)c1cc(F)cc2cccnc12` are -5% and 0.7.
For the compound `O=C(O)c1cc(-n2ncc3cccnc32)cc(S(=O)(=O)N2CCCCCC2)c1`, the “% Inhibition” value is given as -15% and the Z score is given as 1.99.
In the same order, the values of `COc1ncccc1C(=O)N[C@H]1CC(=O)N(CC(C)(C)C)C1` are -5% and 0.67.
`O=C1CC[C@@]2(CCCN(c3ccncc3F)C2)CN1Cc1ccccn1`: the “% Inhibition” value turned out to be 5% and the Z score was -0.88.
In the same order, the values of `O=C(O)[C@@H]1CCCN1C(=O)c1cc(Cl)sc1Cl` are 5% and -0.76.
With `Cc1ccnc(NC(=O)[C@]2(OC(C)C)CCOC2)c1C1CC1`, the “% Inhibition” value turned out to be 18% and the Z score is -2.1.
On the same counts, the results for `C=CCNC(=O)N(Cc1ccccn1)c1ccc(Oc2cccc(C)c2C)nc1` are 42% and -5.63.
In the same order, the values of `Cc1ccc(N2CCCN(Cc3ccc(C)c(C)c3)C2=O)c(NC(=O)NCc2ccccc2)c1` are -4% and 0.37.
On the same counts, the results for `CC(C)CNC(=O)N1CCN(Cc2nc3ccc(Cl)cc3o2)CC1` are -18% and 1.59.
As to `Cc1ccc(OC[C@H]2CCCN2C)nc1`, the “% Inhibition” value is -5% and the Z score stood at 0.75.
Consider `O=C(NCc1ccccc1)N1CC[C@H](S(=O)(=O)c2ccccc2)C1`, for which the “% Inhibition” value is on record as -10% and the Z score is given as 1.65.
On the same counts, the results for `Cc1ncc(CNc2ccc(Br)cc2CO)o1` are -7% and 0.95.
On the same counts, the results for `CC(C)n1ccc(C(=O)Nc2cccc(C3CC(=O)NC(=O)C3)c2)n1` are 5% and -0.53.
On the same counts, the results for `CC(C)Cc1noc(CNC(=O)c2nn(C)cc2Cl)n1` are -7% and 1.19.
As for `C[C@@H]1CN(C(=O)c2csc(C(F)(F)F)n2)CCN(C2CC2)C1`, the “% Inhibition” value was 17% and the Z score is -2.19.
In the same order, the values of `CC1CCC(=O)N1c1ccc(N2CCC(NC[C@H]3CCCO3)CC2)cc1` (stereo partly drawn) are -9% and 1.31.
Take `CCOC(=O)c1c(S(=O)(=O)NCC(=O)Nc2ccc(C)cc2C)c(C)n(CC)c1C`: the “% Inhibition” value is listed as -13% and the Z score was found to be 1.18.
Regarding `O=C(Cc1cccnc1)Nc1ccc(O)cc1`, the “% Inhibition” value is on record as -1% and the Z score was determined as 0.22.
For the compound `COc1cccc(C2(C(=O)N(C)c3nnc(C)s3)CCCC2)c1`, the “% Inhibition” value stood at 9% and the Z score is -0.76.
On the same counts, the results for `CCC(NC(=O)c1ccc2c(C)cc(C)nc2c1)[C@H]1C[C@H](O)C1` (stereo partly drawn) are 2% and -0.35.
In the same order, the values of `O=C(Nc1ccc(-c2nnc3n2CCCCCC3)cc1)c1cc(F)cc(F)c1` are -15% and 2.84.
On the same counts, the results for `O=C1C[C@H](NC(=O)C2(C3CCC3)CCC2)CN1` are -11% and 1.14.
As for `O=C(c1nc2ccccc2s1)N1CCC(Cn2cnc3ccccc32)CC1`, the “% Inhibition” value was 0% and the Z score is reported as 0.
On the same counts, the results for `O=C(Cc1csc(-c2ccccc2)n1)N1CCS(=O)(=O)CC1` are -8% and 1.32.
On the same counts, the results for `Cn1c(C(=O)N[C@H]2CCS(=O)(=O)C2)cc(Cl)c1Cl` are -6% and 1.27.
In the same order, the values of `C[C@H](NC(=O)OCc1ccccc1)C(=O)NC1CCCC1` are -8% and 1.24.
`Cc1n[nH]c(C)c1CNC(=O)NC1CCCCC1C(F)(F)F` (stereo not drawn): the “% Inhibition” value was 3% and the Z score was -0.38.
On the same counts, the results for `Cc1ccc(N2CCC3(CC2)CC(=O)N(Cc2c(C)noc2C)C3)nn1` are -12% and 1.26.
With `O=C(CNS(=O)(=O)c1cccc(C(=O)N2CCC2)c1)NC1CC1`, the “% Inhibition” value is reported as -19% and the Z score was found to be 2.71.
On the same counts, the results for `C[C@@H](c1nnnn1C)N(C)Cc1nccn1CC(F)(F)F` are -24% and 2.18.
On the same counts, the results for `COc1cc(OC)c(S(=O)(=O)NC(C)C)cc1S(=O)(=O)NC(C)C` are 38% and -1.01.
In the same order, the values of `O=C(CN1C=NS(=O)(=O)c2ccccc21)Nc1cccc(Cl)c1` are -12% and 1.48.
Turning to `Cc1cccc(N(C(=O)CC2CCC2)C2CCOCC2)c1`, the “% Inhibition” value was 6% and the Z score was -0.75.
On the same counts, the results for `CCN([C@@H](C)Cc1ccc(OC)cc1)S(=O)(=O)c1cccnc1` are 0% and 0.01.
`COCCN1CC(=O)N[C@H]2CN(Cc3ccc4cc[nH]c4n3)C[C@@H]2OCc2cccc(c2)Oc2cc(ccc2OC)CCC1=O`: the “% Inhibition” value is given as 13% and the Z score is on record as -1.82.
On the same counts, the results for `CC[C@H](C)N(Cc1cc(NC(=O)C2CCC2)ccc1N(C)C)C(=O)NC(C)(C)C` are 2% and -0.34.
On the same counts, the results for `O=C1N[C@@H](c2ccccc2)C(=O)Nc2ccccc21` are -3% and 0.43.
For `Cc1cc(S(=O)(=O)NC(=O)c2c[nH]c(C#N)c2)c(C)s1`, the “% Inhibition” value is 6% and the Z score is given as -0.61.
In the same order, the values of `C[C@]1(O)CCOC2(CCN(Cc3ccc[nH]3)CC2)C1` are -9% and 1.5.
As to `O=C(c1n[nH]c2ccccc12)N1CCC(Oc2ccc(Cl)cc2)CC1`, the “% Inhibition” value is -20% and the Z score was found to be 2.5.
On the same counts, the results for `CC(C)(C)CN[C@H]1CCCc2cn(CC(N)=O)nc21` are 23% and -2.36.
On the same counts, the results for `CC1CN(S(=O)(=O)N2CCCC(c3cn[nH]c3)C2)CC(C)O1` (stereo not drawn) are -12% and 1.37.
On the same counts, the results for `CCOc1ccc(C(=O)N[C@H](CO)Cc2cncs2)cc1` are 11% and -1.23.
`C[C@@H](NC(=O)c1cccnc1)C(=O)NC1CCN(Cc2ccccc2)CC1`: the “% Inhibition” value is reported as 5% and the Z score is listed as -0.72.
In the same order, the values of `Cc1[nH]c(=O)c(C#N)cc1C(=O)N[C@H]1CCOC[C@@H]1OCC1CCC1` are -3% and 0.54.
In the same order, the values of `Cc1cc(CN(C)C(=O)c2ccc(-c3nc(C)cnc3C)cc2)on1` are -7% and 1.33.
In the same order, the values of `CCC(CC)(CNC(=O)[C@@H]1CCCCN1C(C)C)S(C)(=O)=O` are -12% and 2.2.
Turning to `O=C(Nc1ccc(Cl)cc1)c1cn2c3c(cccc3c1=O)CC2`, the “% Inhibition” value was determined as 8% and the Z score is -0.99.
On the same counts, the results for `CCC(C)N1C2OC(C3OC4C(O3)N(C(C)CC)S(=O)(=O)N4C(C)CC)OC2N(C(C)CC)S1(=O)=O` (stereo not drawn) are -18% and 1.93.
As for `O=C(CN1CN(c2ccccc2)C2(CCN(C(=O)NC3CCCCC3)CC2)C1=O)NCCc1ccccc1`, the “% Inhibition” value came to 6% and the Z score is on record as -0.92.
On the same counts, the results for `CN(Cc1ccc(-c2ccccc2)cc1)c1cc([C@H]2C[C@@H](N)C2)nc(N)n1` are 64% and -8.85.
On the same counts, the results for `Fc1ccc([C@H](c2nnc(-c3ccccc3)o2)N2CCC3(CC2)OCCO3)cc1` are -20% and 2.23.
For the compound `CC[C@H]1CCCCCN1C(=O)NCC(=O)N(C)CC(F)(F)F`, the “% Inhibition” value is on record as -6% and the Z score is reported as 0.48.
On the same counts, the results for `COc1ccccc1N(C)C(=O)C(=O)NC1CC1` are 4% and -0.57.
